Several values for one entry are separate records, joined by “and”; a condition that tells them apart may be missing. Identical values can stand only once. The campaign covered roughly 110,000 compounds. About 230 (0.21%) showed an effect of 50% or more. This is one part of the list.
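Note: 30 min substrate incubation versus DMSO and 10 µM JCP410 controls.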

In the assay the target is DPAP1 (Plasmodium falciparum, UniProt Q8IIJ9). As to the kind of experiment: primary screen, percent inhibition; read by cleavage of a fluorogenic dipeptide substrate; higher = more effect of the substance. Details: species or system P. falciparum D10 trophozoite lysates; single well.
Chain of DPAP1 (Q8IIJ9 whole entry, looked up): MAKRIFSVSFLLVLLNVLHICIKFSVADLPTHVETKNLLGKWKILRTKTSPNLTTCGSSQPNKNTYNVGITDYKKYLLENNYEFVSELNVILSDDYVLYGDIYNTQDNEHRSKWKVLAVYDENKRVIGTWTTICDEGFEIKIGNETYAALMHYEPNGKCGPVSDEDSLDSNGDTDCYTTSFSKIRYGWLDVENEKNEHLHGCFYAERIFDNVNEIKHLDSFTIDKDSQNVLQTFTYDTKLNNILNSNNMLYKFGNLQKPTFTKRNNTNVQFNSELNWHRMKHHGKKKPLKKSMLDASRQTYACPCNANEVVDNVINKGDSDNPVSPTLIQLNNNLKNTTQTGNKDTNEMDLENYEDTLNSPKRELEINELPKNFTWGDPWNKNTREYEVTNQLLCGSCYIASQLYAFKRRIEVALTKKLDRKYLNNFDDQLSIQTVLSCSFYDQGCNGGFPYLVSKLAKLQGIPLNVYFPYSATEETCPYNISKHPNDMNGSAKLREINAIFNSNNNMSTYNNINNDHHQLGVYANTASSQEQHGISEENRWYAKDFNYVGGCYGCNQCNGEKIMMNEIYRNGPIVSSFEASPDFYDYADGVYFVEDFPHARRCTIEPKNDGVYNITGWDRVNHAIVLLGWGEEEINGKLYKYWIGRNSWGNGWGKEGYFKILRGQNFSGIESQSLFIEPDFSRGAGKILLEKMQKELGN
For `Cc1cc(-c2[nH]nc3c2C(c2ccc(F)cc2)C(C#N)=C(N)O3)c(C)s1` (stereo not drawn), the “% Inhibition @ 10 uM” value was -4.65%. With `COc1ccc(-c2cc(C(=O)N(C)Cc3ccccc3)no2)cc1OC`, the “% Inhibition @ 10 uM” value is reported as 13.3%. Next, `Oc1ccccc2c3c(nc1-2)CCCC3`: 0.27%. As for `Cc1nc2cc(NC(=O)c3ccc(NS(=O)(=O)c4cccc(Cl)c4)cc3)ccc2s1`, the figure is 1.84%; as for `Cc1cc(C(=O)NC(C)c2ccc3c(c2)OCO3)cs1` (stereo not drawn), 0.493%. As for `COc1ccccc1CNC(=O)C1CCCN(S(=O)(=O)N2CCCCCC2)C1` (stereo not drawn), the figure is 4.36%; as for `CN(C)c1ccc(C=C2C(=O)OC(C)(C)OC2=O)cc1`, 4.34%. On to `O=C(c1cc2nc(-c3ccco3)cc(C(F)(F)F)n2n1)N1CCN(C23CC4CC(CC(C4)C2)C3)CC1`, for which the “% Inhibition @ 10 uM” value is listed as -0.834%. Next, `Cc1ccc(C2CC(c3cccc(Cl)c3)n3ncnc3N2)cc1C` (stereo not drawn): 0.219%; `Fc1ccc(-c2csc(-c3cccnc3)n2)cc1`: -2.09%; `C=C(C)CN(CC)C1CCN(CCc2ccccc2)CC1`: 6.26%. As for `Nc1nc(O)c2nc(Br)n(C3OC(CO)C(O)C3O)c2n1` (stereo not drawn), the “% Inhibition @ 10 uM” value is recorded as -1.29%. Next, `Fc1ccc(F)c(CN2CCN(c3cccc(Cl)c3)CC2)c1`: -3.5%. Take `CCCOc1ccccc1N1C(=O)C2CC(C)=C(C)CC2C1=O` (stereo not drawn): the “% Inhibition @ 10 uM” value came out at 0.634%. Next, `COc1ccc(-c2[nH]c(-c3ccc(C)cc3)nc2SCC(=O)NCc2ccco2)cc1OC`: -1.58%; `CCC(C)(C)C1CCc2sc3ncnc(N4CCOCC4)c3c2C1` (stereo not drawn): 2.56%; `CCC(=O)N1c2ccccc2N=C2CC(C)(C)CC(O)=C2C1c1ccc2c(c1)OCO2` (stereo not drawn): 1.01%.

On to `CC1CC(C)CN(C(=O)C2CCN(C(=O)c3cnn(-c4ccccc4)c3-n3cccc3)CC2)C1` (stereo not drawn), for which the “% Inhibition @ 10 uM” value is on record as -7.1%. For the molecule `COCCCNC(=O)CCCc1nnc2n(C)c(=O)c3sccc3n12`, the “% Inhibition @ 10 uM” value is given as -5.95%.

Consider `Cc1ccc(C(=O)NC2CCCCCC2)cc1[N+](=O)[O-]`, for which the “% Inhibition @ 10 uM” value is reported as -1.22%. In the case of `CC1CCN(c2ccc3nnc(CCC(=O)NC(C)c4ccc5c(c4)OCCO5)n3n2)CC1` (stereo not drawn), the “% Inhibition @ 10 uM” value was -2.55%.

For `O=C(CCC(=O)Nc1ccccc1Cl)Nc1ccccc1Cl`, the “% Inhibition @ 10 uM” value is on record as -3.23%. Next, `OCCCn1c(-c2ccccc2)cn2c3ccccc3nc12`: 5%.

As for `CCCNC(=O)c1cc2n(n1)C(C(F)(F)F)CC(c1ccc(Br)cc1)N2` (stereo not drawn), the “% Inhibition @ 10 uM” value is given as -0.67%. Regarding `Cn1c(=S)[nH]c2c(c1=O)C1(CCCCC1)Cc1ccccc1-2`, the “% Inhibition @ 10 uM” value is -6.09% and 0.756%. For `Cc1cccc(OCC(=O)Nc2ccc(S(=O)(=O)Nc3onc(C)c3C)cc2)c1`, the “% Inhibition @ 10 uM” value was -2.3%. On to `O=C1CSC(C23CC4CC(CC(C4)C2)C3)N1` (stereo not drawn), for which the “% Inhibition @ 10 uM” value is -1.33%. Next, `FC(F)(F)c1ccccc1CN1CCOCC1`: -0.0494%; `Cc1ccc(NCC(=O)c2ccc([N+](=O)[O-])cc2)cc1`: -2.03%; `CCN(CC)CCOC(=O)C1(c2ccccc2)CCCC1`: 3.44%. Next, `CCc1ccc(/C(O)=C/C=N/c2ccc3c(c2)OCO3)cc1`: 2.46%; `CC(C)(C)NC(=O)CCSc1ccc(Cl)cc1`: -1.33%. As for `CCN(CC)CCNC(=O)c1c(O)nc2c(c1O)CCCC2`, the figure is 2.8%; as for `COc1cc(OC)c(C2CC(=O)NC3=C2C(=O)CCC3)cc1OC` (stereo not drawn), -8.2%. As for `Cc1ccnc(NC(=O)CCCCC(=O)O)c1`, the “% Inhibition @ 10 uM” value was -0.467%.

Consider `CCOc1ccccc1C(=O)Nc1ccc(F)cc1`, for which the “% Inhibition @ 10 uM” value is reported as -1.07%.

Consider `CN(C)CCC(=O)c1ccc(Br)cc1`, for which the “% Inhibition @ 10 uM” value is listed as 0.968%. With `C#Cc1cccc(NC(=O)COc2ccccc2OC)c1`, the “% Inhibition @ 10 uM” value is reported as -2.74%.

With `CC(C)Oc1ccccc1C=C1C(=O)NC(=O)NC1=O`, the “% Inhibition @ 10 uM” value turned out to be 1.13%. For the molecule `CC(C)CCNC(=O)CCn1nc(-c2ccc(Cl)cc2)ccc1=O`, the “% Inhibition @ 10 uM” value is given as -3.58%. Next, `COc1ccccc1-c1nc2s/c(=C\c3ccc(C)o3)c(=O)n2n1`: -4.85%. Regarding `C=CCn1c(SCC(=O)NCc2cccnc2)nc2sc3c(c2c1=O)CCCC3`, the “% Inhibition @ 10 uM” value is recorded as -7.02%. Turning to `CN(C)CCN/C=C1\C(=O)NC(=O)N(CCC2=CCCCC2)C1=O`, the “% Inhibition @ 10 uM” value worked out at 8.6%. As for `CCN(CC)CCNS(=O)(=O)c1cc(Br)cnc1N`, the figure is -1.06%; as for `COc1ccc(Cc2nnc(NC(=O)CSCc3ccccc3)s2)cc1`, 0.565%.

Consider `COCCN1C(=S)NC2CC1(C)Oc1ccc(Cl)cc12` (stereo not drawn), for which the “% Inhibition @ 10 uM” value is -17.3%. For `Nc1nc(NCc2ccccc2)nc(-c2cc(Cl)ccc2O)n1`, the “% Inhibition @ 10 uM” value is 5.49%.

In the case of `COc1cc(/C=C(\C#N)c2nn(CCO)c(N)c2C#N)cc(Br)c1OCc1ccccc1`, the “% Inhibition @ 10 uM” value is 7.62%. On to `CCOC(=O)C(/C=N/c1ncccn1)=C(/O)OCC`, for which the “% Inhibition @ 10 uM” value was 0.487%. `Cc1cc(C)c(C#N)c(SCC(=O)Nc2ccc(Br)cc2)n1`: the “% Inhibition @ 10 uM” value came out at 7.11%.

On to `O=C(Nc1cccnc1)c1ccc(S(=O)(=O)c2ccc(Cl)cc2)cc1`, for which the “% Inhibition @ 10 uM” value came out at 4.95%. As for `Cc1cc(OCC(=O)Nc2ccccc2C(=O)O)cc(C)c1Cl`, the figure is 1.57%. With `CNC(=O)c1nnn(Cc2ccccc2)c1NC(C)=O`, the “% Inhibition @ 10 uM” value is reported as 4.32%.

Take `COc1ccc(Br)cc1CNC(=O)Cn1nc(C)n2c(cc3occc32)c1=O`: the “% Inhibition @ 10 uM” value is on record as -1.6%. Turning to `CCNc1nc(ON=C(C)C)nc(N(C)C)n1`, the “% Inhibition @ 10 uM” value stood at 2.95%. Next, `Cc1cccc(-c2noc(CCC(=O)Nc3cccnc3)n2)c1`: -2.21%. As for `Cc1ccc(-c2cc(C(=O)N3CCN(C(=O)c4ccco4)CC3)no2)cc1`, the figure is 3.54%; as for `CCN1CCC(Nc2ccc3c[nH]nc3c2)CC1`, -0.0953%; as for `O=C(COc1ccc2c(=O)c(-c3ccc(Cl)cc3)coc2c1)N1CCOCC1`, 1.05%. Next, `COc1ccc(C2=NS(=O)(=O)N(C)C(C(=O)NCC(C)C)=C2)cc1`: -2.84%. As to `COc1ccc2nc(C)cc(Nc3ccc(C(=O)O)cc3)c2c1`, the “% Inhibition @ 10 uM” value turned out to be 1.93%.

As to `CCN(CC)CCCNC(=O)Cn1ncc2c(=O)oc3ccc(C)cc3c21`, the “% Inhibition @ 10 uM” value is given as -1.7%. As to `CCc1ccc(CN2CCN(c3cccc(C(F)(F)F)c3)CC2)cc1`, the “% Inhibition @ 10 uM” value is on record as -0.127%.

For `N#CCc1ccc(NC(=O)CN(c2ccc(F)cc2)S(=O)(=O)c2ccc3c(c2)OCCO3)cc1`, the “% Inhibition @ 10 uM” value is given as 8.95%. Take `Cc1cc(C)c(-c2c(O)n3c4[n+](c2=O)CCCN4CCC3)c(C)c1`: the “% Inhibition @ 10 uM” value is reported as -1.24%.

As for `Cc1cc(/C=C2/NC(=O)N(c3ccccc3)C2=O)c(C)n1C`, the “% Inhibition @ 10 uM” value is recorded as 1.86%. Next, `CCOc1ccc(-n2c(CSc3ncccn3)nnc2SCC(N)=O)cc1`: -4.94%; `COc1ccc2c(=O)cc(C(F)(F)F)oc2c1`: -3.32%. As for `Cc1c(Cl)ccc2c1NC(C(=O)O)C1CC=CC21` (stereo not drawn), the figure is 21.6%; as for `Cn1cc(C2NC(=O)c3c(sc4c3CCCC4)N2)c2ccccc21` (stereo not drawn), 1.24%.

Turning to `NC(=O)C1CCN(C(=O)c2ccc3nc(N4CCCCC4)sc3c2)CC1`, the “% Inhibition @ 10 uM” value was -2.37%. On to `COc1ccccc1/C=C1\C(=O)C(=O)c2ccccc21`, for which the “% Inhibition @ 10 uM” value was found to be 2.76%. As for `COc1ccc2c(c1)C1=NN(C(C)=O)C(c3ccccc3)C1CC2` (stereo not drawn), the figure is -2.6%. For `O=C1N=C(N2CCN(Cc3ccccc3)CC2)S/C1=C\c1cccc(O)c1`, the “% Inhibition @ 10 uM” value is listed as 51%. As to `c1ccc(OCCN2CCCC2)cc1`, the “% Inhibition @ 10 uM” value is reported as 2.76%. Next, `Cn1c(C(=O)O)c(CC(=O)N2CCN(Cc3ccc4c(c3)OCO4)CC2)c2ccccc21`: 2.06%. Next, `C=CCC1(NCc2ccccc2)CCN(CC)CC1`: 0.392%; `COc1ccc2c(CCNC(=O)c3ccco3)c[nH]c2c1`: 0.00178%; `COc1ccc(C(=O)c2cc(CC(=O)O)c(-c3ccc(OC)cc3)s2)cc1`: -1.82%. For `COC(=O)c1ccc(-n2nnnc2SCC(=O)N2CCCCC2)cc1`, the “% Inhibition @ 10 uM” value is 2%. Next, `O=C1N=C(Nc2ccc(Br)cc2)S/C1=C\c1ccc(C(=O)O)cc1`: -1.35%; `CC(C)CC(C(=O)NCCC1=CCCCC1)N1Cc2ccccc2C1=O` (stereo not drawn): -4.38%.

`CCOC(=O)N1CCC(/N=c2\c(O)c(O)\c2=N/CCCOC)CC1`: the “% Inhibition @ 10 uM” value worked out at 1.93%. Next, `CCn1c(C)c(C)c2cc(C(=O)NCCc3ccc(SC)cc3)ccc21`: -3.2%. For `CCOc1ccc2nc(Sc3ccc(C=C4C(=O)N(C)C(=O)N(C)C4=O)o3)sc2c1`, the “% Inhibition @ 10 uM” value is on record as 1.13%. Regarding `CC1CCc2c(sc3nnn(CC(=O)NCc4ccco4)c(=O)c23)C1` (stereo not drawn), the “% Inhibition @ 10 uM” value is 2.24%. In the case of `CC12CC3(C)CC(C)(C1)CC(NC(=O)N1CCN(CCO)CC1)(C2)C3`, the “% Inhibition @ 10 uM” value was -1.89%.

In the case of `CC(C)N1CC2(c3ccccc3)CN(C(C)C)CC(c3ccccc3)(C1)C2=O`, the “% Inhibition @ 10 uM” value is -1.1%. `Cc1ncc(-c2ccc([N+](=O)[O-])cc2)cn1`: the “% Inhibition @ 10 uM” value turned out to be 2.65%.

Consider `CCCCN(C(=O)c1cc2c(Cl)nc3ccc(C)cc3c2s1)C1CCN(C(C)=O)CC1`, for which the “% Inhibition @ 10 uM” value is -1.7%. `O=C(Cn1nc(Cc2cccnc2)c2ccccc2c1=O)N1CCC2(CC1)OCCO2`: the “% Inhibition @ 10 uM” value is -1.21%. On to `Cc1ccccc1-c1noc(-c2cccs2)n1`, for which the “% Inhibition @ 10 uM” value turned out to be 7.02%. As to `O=c1[nH]c(=O)n(Cc2ccccc2)c2c1C(C(F)(F)F)(C(F)(F)F)NC(c1ccccn1)=N2`, the “% Inhibition @ 10 uM” value is recorded as -1.89%. Next, `O=C(O)c1cnc(-c2ccccc2)nc1-c1ccncc1`: 2.39%; `Cc1ccc(CNC(=O)CSc2nc3nccnc3c(=O)n2Cc2ccccc2Cl)cc1`: 2.81%; `Fc1cccc(Cl)c1C1CC(c2cccnc2)Nc2ncnn21` (stereo not drawn): 0.238%. As for `COc1ccc(S(=O)(=O)Nc2ccc3oc4c(c3c2)CC(C)CC4)cc1` (stereo not drawn), the figure is 0.909%; as for `COc1cccc(-c2nc(CS(=O)(=O)CC(=O)NC(C)CCc3ccccc3)c(C)o2)c1` (stereo not drawn), -0.138%; as for `CCOC(=O)N1CCN(C(=O)CNS(=O)(=O)c2ccc3nc(C)sc3c2)CC1`, -0.933%. Next, `C#CCn1c(CCNC(C)=O)nc2ccccc21`: -2.5%; `CCCCCCCCOc1ccc(/C=C(\C#N)c2nc(-c3ccc(OC)cc3)cs2)cc1`: -5.94%; `CCOC(=O)c1c(N)oc2c3c(c(O)cc12)C(=O)c1ccccc1C3=O`: -1.6%.

Values taken from paper PMC6919601, “Identification of Plasmodium dipeptidyl aminopeptidase allosteric inhibitors by high throughput screening” (PLoS ONE, 2019).
